Drawing on the RNAGym collection of RNA variant scans (doi:10.7554/elife.90254), this text covers self-cleavage for 83 variants.

Read counts are not given, so values of variants with three or more changes are uncertain.

To fix the notation:
B1: OR4K15 (parent)
chain: GUUAACGGUCAUAGGCCAUGGAAACUAGGAGCACCAUUUCGCUGCCAGUGAAGAAAUGAACAAAGAAAAUCUGGGCCAGGCAGGCAUCAAAAGAAAUAGUCUUGCGCUCAACCAGAAAGUCUGUAAUCAUUUUAAGGGUA

Variants of B1 are the subject of the data set. Kind of data set: self-cleavage, relative activity (ratio to wild type); higher = more cleavage; in vitro, sequencing; the parent is a self-cleaving ribozyme.
As to A22G A66G A67U G115U U139A, the self-cleavage was 0.09.
In the case of G21A A96G U97C U108C it was 0.01.
In the case of A22G A82G A94U U120C it was 0.6.
Turning to U19C A59G U130A, the self-cleavage was 0.75.
The figure for A22G A78G U102C U120C is 0.23; for U19C A51G A78G it is 0.23.
The figure for A22G A62G A86G is 1.92; for A22G A47G U87C it is 0.42; for A22G A24C A66U it is 1.81.
The figure for G20U A56G U72C U103G U127A is 0.01; for G20A A68G A69G U70C U108C A110U it is 0.01; for U19C A62G U120C it is 0.51.
For the variant A22G A60G U72C A94G, the self-cleavage turned out to be 0.13.
The figure for A22G A55U A111G is 0.05; for A22G A52G A67G U108C it is 0.03.
Take A22G U38C A125G: the self-cleavage was 0.44.
As to A22G A55G A59G U102C, the self-cleavage is 1.38.
The figure for A22G G41U A94U is 1.24; for U19C U43C A55U G138U it is 1.06; for U19C A126G U130C it is 0.28.
In the case of U19C A55G A64U it was 1.63; in that of A22G A52C A63G A94G A116G, 1.2.
The figure for U19C U49C A89G is 0.39; for G21A A27G U37C it is 0.74.
Take G20A U131C U132C: the self-cleavage turned out to be 1.42.
In the case of A22G A23U G75A it was 0.29.
In the case of U19C U37C U43C A89G U122G A134G it was 1.52.
The figure for A22G A66G A129G A140G is 1.21; for U19C A91G U122C U127C it is 0.29; for A22G A30G A64G A92G it is 1.25.
For the variant A22G U38C A51G A62G A125G U127C, the self-cleavage was found to be 1.29.
The figure for U19C U97A U120A is 2.52.
The figure for A22G A54G A62G A64G is 1.08.
In the case of A22G A33G U39A A68G it was 1.17; in that of U19C A36G U100C A114G, 1.3; in that of A22G A78U U120C U132C, 0.08.
Consider A22G A23G U37C A95G, for which the self-cleavage came out at 1.18.
The figure for U19G U43A A90G is 1.53; for A22C A55G A67U A114G U130C it is 0.55; for U19C A64U A92G A118G it is 0.5.
In the case of A22G A90G A111G U122A it was 0; in that of U19C A78C A140G, 0.25.
A22G A86G A89C: the self-cleavage turned out to be 0.71.
Regarding G21C A62U U108C A118G, the self-cleavage was 0.01.
In the case of U19C U43C C113U it was 0.02; in that of U19C U39A A96G, 1.37; in that of U19C A91G A111G, 0.02.
The figure for A22G A59G U120G U130C is 1.51.
In the case of A22G A24G A52G A56G G58C U102C it was 1.06; in that of G21A A51G A60G A95G, 1.63.
Turning to A22G A55G A96U U108C, the self-cleavage amounted to 0.02.
In the case of A22G A51G A56G A67G A69U U102C U122C it was 0.87; in that of G20A U38C C46U A117U, 1.43; in that of A22G A47G U87C A111G, 0.07.
In the case of U19C A56U A69G A78U A140G it was 0.33.
In the case of G21C A96G U124C it was 0.56; in that of U19C G44A U49C A90G A114G, 0.1.
For the variant U19C A52G A91G, the self-cleavage is 0.98.
In the case of A22G A52G G74A A92U it was 0.05.
The figure for U19C A62G U124A is 1.58; for A22G G48A A69U U127C it is 1.21.
The figure for A22G U37C A52G U72C U102A A110C A114G is 0.18; for A22G A33U A63G A90G A94G U120C U122A U131C it is 0.35.
As for A22G C32G A114G, the self-cleavage amounted to 0.49.
As for U19C G41A A111C U127C U131C, the self-cleavage was found to be 0.
In the case of U19C A56C U72A it was 0.13; in that of G20A A47G A55G A86U A90G A95G U108C, 0.01.
In the case of A22G A56G U100C it was 2.62.
Take U19C A47U U57C: the self-cleavage worked out at 0.55.
Turning to U19G A55G U70C A82G U108A, the self-cleavage turned out to be 0.05.
Consider U19C A63U A69G U127G, for which the self-cleavage was 1.93.
In the case of A22G A125G A126G U132C it was 0.46; in that of G20A G21U A126C, 0.88.
In the case of A22G A63G A67G A82G U122C it was 0.41; in that of U19G A78U U120C U124C, 0.14.
In the case of U19G A23G U102C A118G A134U it was 1.05.
In the case of A22G A82G U102C, the self-cleavage came out at 1.33.
Turning to G21U A86G A90G, the self-cleavage worked out at 0.84.
On to U19C U43C C107U, for which the self-cleavage was 0.01.
The figure for U19C G28A A78U A96G U97A A117G U139C is 0.29; for A22G A82U U108C it is 0.03.
Consider G21U A36C A92U, for which the self-cleavage was 1.34.
Consider A22G A69G A117G, for which the self-cleavage turned out to be 2.16.
